Screen size: about 52,000 compounds; about 1,700 (3.3%) were called active. No stated cut-off is given here; in the data, active means survival mostly below about 52% (no sharp cut-off); inactive means mostly above about 56%. This is one part of the list.
These compounds were tested on Wild type (assay: growth inhibition of S. aureus wild type versus tarO mutant, primary screen, teichoic acid synthesis inhibitors, RN4220, OD600 (AID 463173)). Settings: S. aureus RN4220 wild type/DeltatarO growth, OD600, 18 h, hits give low values, screened at 18.75 µg/mL (by protocol).

Row | SMILES | survival
1 | CCOCCCNC(=O)C(c1ccccc1)N1Cc2ccccc2C1=O (stereo not given) | inactive: 72%
2 | Cc1cccc(NC(=O)C(=O)NCC(c2ccc3c(c2)OCO3)N2CCN(c3ccccc3)CC2)c1 (stereo not given) | inactive: 73%
3 | Cc1noc(/C=C/c2ccccc2F)c1S(=O)(=O)N1CCC(C(=O)N2CCOc3ccccc32)CC1 | inactive: 65%
4 | COc1ccc(C)cc1NC(=O)Nc1cccc(-c2noc(C)n2)c1 | inactive: 136%
5 | CCc1ccc(NC(=O)Cn2c(=O)n(CCC(=O)NCCc3ccc(Cl)cc3)c(=O)c3ccccc32)cc1 | inactive: 85%
6 | O=C(NC1CC1)C1C2C=CC3(O2)C1C(=O)N(C1CC1)C3C(=O)NC1CCCCC1 (stereo not given) | inactive: 96%
7 | COC(=O)c1ccc(NC(=O)CSC2=NCCS2)cc1 | inactive: 102%
8 | COc1ccc(C(=O)Nc2nc(-c3nnn(-c4ccc(C(C)C)cc4)c3C)ns2)cc1 | inactive: 120%
9 | COc1ccccc1CCNC(=O)C(C)Sc1nc(-c2ccccc2)cc(C(F)(F)F)n1 (stereo not given) | inactive: 53%
10 | CC(=NCCCn1ccnc1)c1c(C(F)(F)F)[nH]n(-c2nc3ccccc3s2)c1=O | inactive: 113%
11 | Cc1ccc(-c2cc(-c3ccccc3)c(C#N)c(SCC(O)CS(=O)(=O)Cc3ccccc3)n2)cc1 (stereo not given) | inactive: 75%
12 | O=C(Cn1ncn2c(cc3ccccc32)c1=O)NCc1ccc(F)cc1 | inactive: 91%
13 | COc1ccc(F)cc1S(=O)(=O)Nc1cccc(-c2ccc(N3CCC(C)CC3)nn2)c1 | inactive: 129%
14 | CC(C)c1ccc(-c2noc(C3CCCN(S(=O)(=O)c4ccccc4)C3)n2)cc1 (stereo not given) | inactive: 103%
15 | COc1cccc(-c2nnn(CCc3nn[nH]n3)n2)c1 | inactive: 106%
16 | CCCOc1ccc(CNC(=O)c2[nH]c3cc(OC)ccc3c2Sc2ccccc2)cc1 | inactive: 99%
17 | N#Cc1c(/N=C/N2CCCCC2)sc2c1CCCC2 | inactive: 89%
18 | CCN1CCN(C(=S)NC)CC1 | inactive: 110%
19 | COc1ccc(Nc2ncnc3c2nc2n3CCCCC2)cc1 | inactive: 85%
20 | COc1ccc(CCNC(=O)c2c(C)oc3ncn(C)c(=O)c23)c(OC)c1 | inactive: 71%
21 | CC(=O)Nc1ccc(N(C(=O)Cn2nnc3ccccc32)C(C(=O)NCc2ccccc2)c2ccc(C)cc2)cc1 (stereo not given) | inactive: 78%
22 | CCN(C(=O)CSc1nc2ccccc2n1Cc1ccc(F)cc1Cl)c1ccccc1 | inactive: 90%
23 | Cc1ccc2[nH]c(=O)c3cc(C(=O)NCCCN4CCC(C)CC4)sc3c2c1 | inactive: 68%

Row | SMILES | survival
24 | O=C1C(c2ccc(F)cc2)N(CCc2ccccc2)C(=O)CN1C1CCCCCC1 (stereo not given) | inactive: 81%
25 | CCCCNc1oc(-c2ccc(COc3ccc(OC)cc3)o2)nc1C#N | inactive: 92%
26 | Cc1ccc(Cl)cc1NC(=O)CN1C(=O)CCc2ccccc21 | inactive: 98%
27 | CCOC(=O)c1c(C)[nH]c(C)c1S(=O)(=O)N1CCC(C(=O)NCc2ccccc2Cl)CC1 | inactive: 129%
28 | COc1ccc(C)cc1N(C)C(=O)CCc1nc(-c2ccccc2F)no1 | inactive: 57%
29 | CCOC(=O)C(Cc1c[nH]c2ccccc12)NC(=O)COc1ccc(CC)cc1 (stereo not given) | inactive: 32%
30 | Cc1cc(NC(=O)CN2CCC(C)CC2)nc2c1c(=O)oc1ccccc12 | inactive: 92%
31 | CN(C)c1ccc(Nc2ncnc3sc4c(c23)CCCC4)cc1 | inactive: 124%
32 | COc1ccc(CC(=O)NCc2nc3cccnc3n2Cc2ccccc2)cc1 | inactive: 59%
33 | COC(=O)c1ccccc1NC(=O)CCCn1c(=O)c2cccn2c2cccnc21 | inactive: 95%
34 | CCc1nc(NCCCO)c2nnn(Cc3ccccc3F)c2n1 | inactive: 106%
35 | CC(C)NC(=O)CN1C(=O)C(C)(C)Oc2ccc(C(=O)NC(C)C)cc21 | inactive: 101%
36 | CCOC(=O)c1cc2oc(C)cc2n1CCCN1C(=O)c2ccccc2C1=O | active: -1%
37 | O=C(Cn1cnc2ccccc2c1=O)NCCC(=O)Nc1ccc(F)cc1 | inactive: 71%
38 | CC(C)COc1ccc(C(=O)Nc2cc(-c3ccccc3)no2)cc1 | inactive: 88%
39 | CCc1cccc2c(C#N)cn(CCOc3ccccc3OC)c12 | inactive: 95%
40 | CCCCN(CC)CCCNC(=O)Cn1ncc2c([nH]c3ccc(C)cc32)c1=O | inactive: 71%
41 | O=c1c2cn[nH]c2nc(SCc2c(F)cccc2F)n1-c1ccc(Cl)cc1 | inactive: 90%
42 | CCCCN1C(=O)C(O)(CC(=O)c2ccc(C)cc2C)c2cc(Br)ccc21 (stereo not given) | active: 1%
43 | O=C(NCc1ccco1)c1ccc2c(c1)N(Cc1ccc(F)cc1)C(=O)c1ccccc1S2(=O)=O | inactive: 152%
44 | CC(C)(C)c1cc(C(F)(F)F)nc(SCCCNC(=O)c2ccco2)n1 | inactive: 116%
45 | COc1ccc(N(CC(=O)N2CCN(c3ccc(F)cc3)CC2)S(=O)(=O)c2c(C)noc2C)cc1 | inactive: 88%
46 | CCOc1cccc(C(=O)Nc2nc3c(s2)CC(C(C)(C)C)CC3)c1 (stereo not given) | inactive: 92%

Row | SMILES | survival
47 | COc1cccc(CNC(=O)c2cc(Sc3cccc(Cl)c3)nc3ccccc23)c1 | inactive: 81%
48 | Cc1ccc(/C=C/C(=O)Nc2ccccc2C(N)=O)o1 | inactive: 66%
49 | COc1ccccc1NC(=O)COc1ccc(-c2nn(C)c(=O)c3ccccc23)cc1 | inactive: 57%
50 | COc1cc(OC)cc(-c2nc3n(n2)C(c2ccccc2)C(C(N)=O)=C(C)N3)c1 (stereo not given) | inactive: 79%
51 | Cc1c(C(=O)N2CCOCC2)oc2c1-c1nn(CC(=O)NCc3cccc(Cl)c3)cc1CC2 | inactive: 83%
52 | Cc1sc(-c2cc3c([nH]c2=O)CC(c2ccccc2)CC3=O)nc1-c1ccc(Cl)cc1 (stereo not given) | inactive: 67%
53 | Cc1ccc(CCNC(=O)c2c(C)oc3ncn(CC(C)C)c(=O)c23)cc1 | inactive: 131%
54 | CC(C)(C)OC(=O)N1CCC(c2c(C(=O)NCCc3ccccc3)cnn2-c2ccc(F)cc2F)CC1 | inactive: 63%
55 | COc1ccc(-c2c(C)c3ccc(O)c(CN4CCN(CCO)CC4)c3oc2=O)cc1OC | inactive: 86%
56 | O=C(NCc1cccc(F)c1)c1ccc(NC(=O)c2nsc3ccccc23)cc1 | active: -4%
57 | CCOC(=O)c1c(NC(=O)COc2cccc(C)c2C)sc2c1CCC(CC)C2 (stereo not given) | inactive: 78%
58 | Cn1c(=O)oc2cc(S(=O)(=O)N3CCC(C(=O)N4CCN(c5ccccc5F)CC4)CC3)ccc21 | inactive: 93%
59 | COc1cc(Cl)c(C)cc1NC(=O)CC(c1ccc(F)cc1)N1Cc2ccccc2C1=O (stereo not given) | active: -2%
60 | CCCCS(=O)(=O)c1oc(-c2ccc(F)cc2)nc1S(=O)(=O)c1ccc(C)cc1 | inactive: 33%
61 | COc1ccc(OC)c(S(=O)(=O)Nc2cccc(-c3ccc(N4CCCCC4)nn3)c2)c1 | inactive: 84%
62 | CC(C)(C)c1ccc(C(=O)Nc2onc3c2CCCC3)cc1 | inactive: 81%
63 | Cc1ccc(C)c(N2CCN(C(=O)CSCc3ccccc3Cl)CC2)c1 | inactive: 82%
64 | COc1cccc(NC(=O)CC2Nc3cc(C)c(C)cc3NC2=O)c1 (stereo not given) | inactive: 78%
65 | Cn1ncc(Cl)c1C(=O)O | inactive: 95%
66 | Cc1cccc(NC(=O)CCS(=O)(=O)c2cc(Br)cc3c2N(C(=O)C2CC2)CC3)c1 | inactive: 98%
67 | CCOc1ccc(NS(=O)(=O)c2ccc3c4c(cccc24)C(=O)N3)cc1 | inactive: 78%
68 | CC(C)(C)c1ccc(C(=O)NCC(c2ccc(Cl)cc2)N2CCOCC2)cc1 (stereo not given) | inactive: 117%
69 | Cc1ccc(CN(Cc2ccco2)C(=O)COc2ccc(C)c(C)c2)cc1 | inactive: 84%

Row | SMILES | survival
70 | CCc1ccc(S(=O)(=O)Nc2cccc(-c3ccc(N4CCOCC4)nn3)c2)cc1 | inactive: 60%
71 | Cc1ccc(CNC(=O)CC2Oc3ccc(Cl)cc3NC2=O)cc1 (stereo not given) | inactive: 80%
72 | COc1ccc(/C=C/C(=O)Nc2nc(-c3cccs3)ns2)cc1OC | inactive: 65%
73 | CC(=O)c1cccc(NC(=O)CSc2nc3ccccc3nc2Cc2ccc(F)cc2)c1 | inactive: 73%
74 | CC(=O)Nc1ccccc1-c1nc2ccccc2n(CC(=O)Nc2cccc(C(F)(F)F)c2)c1=O | inactive: 56%
75 | Cc1ccc(CO)cc1Nc1ncnc2onc(-c3ccc(F)cc3)c12 | inactive: 68%
76 | CCS(=O)(=O)N1CC(=O)N(c2ccc(Cl)cc2)C(C)(C(=O)NC2CCCCC2)C1 (stereo not given) | inactive: 72%
77 | CCOc1cccc2cc(S(=O)(=O)c3ccccc3F)c(=O)oc12 | inactive: 74%
78 | CCN(CC)C(=O)CSc1nc(-c2ccc(C)cc2)nc2c1Cc1c(CO)cnc(C)c1O2 | inactive: 56%
79 | CN(N)C1=NS(=O)(=O)c2ccccc21 | inactive: 96%
80 | CC1=C(c2ccc(C(C)C)cc2)S(=O)(=O)N=C1N1CCC(C(=O)NCCc2ccco2)CC1 | active: 1%
81 | COc1cccc(-c2nc(SCC(=O)NC3CCCC3)c(-c3ccc(C)cc3)[nH]2)c1 | inactive: 117%
82 | Cc1ccc(CNC(=O)c2ccc3nc(SCc4ccc(F)cc4)[nH]c3c2)cc1 | inactive: 76%
83 | CCc1ccc(NC(=O)CN(c2cc(C)cc(C)c2)S(=O)(=O)c2c(C)[nH]c(=O)[nH]c2=O)cc1 | inactive: 68%
84 | CC(C)CC(=O)N(c1nnc(-c2cccnc2)s1)C1CCCC1 | inactive: 98%
85 | CC1=C(C(=O)Nc2ccc(F)cc2F)C2(CCN(C(C)C)CC2)OC1=O | inactive: 22%
86 | CCCOc1cccc(C(=O)Nc2cc(-c3ccccc3)no2)c1 | inactive: 87%
87 | Cc1ccc(C(=O)Nc2c(C)nc3ccccn3c2=O)cc1C | inactive: 69%
88 | CCOc1ccc(CNC(=O)c2ccc3c(c2)nc2n3CCOC2)cc1OC | active: 1%
89 | CCc1cccc(NC(=O)C(Cc2ccccc2)n2cccc2)c1 (stereo not given) | active: 12%
90 | CC(C)(C)c1ccc(CSc2n[nH]c(=O)[nH]c2=O)cc1 | inactive: 117%

Source: PubChem BioAssay AID463173 (ICCB-Longwood Screening Facility, Harvard Medical School, 2010)
